Reference: article PMC4336329 (PLoS ONE, 2015)
In all, about 310,000 compounds went through this assay and about 2,200 (0.71%) showed an effect of 50% or more. Effects have a minus sign here. The list shows a part of the results.

These molecules were tested against human ether-à-go-go-related gene (hERG) potassium channel (human, UniProt Q12809) (assay: primary screen, population patch clamp on CHO cells stably expressing hERG).
Chain of human ether-à-go-go-related gene (hERG) potassium channel (Q12809 whole entry, looked up): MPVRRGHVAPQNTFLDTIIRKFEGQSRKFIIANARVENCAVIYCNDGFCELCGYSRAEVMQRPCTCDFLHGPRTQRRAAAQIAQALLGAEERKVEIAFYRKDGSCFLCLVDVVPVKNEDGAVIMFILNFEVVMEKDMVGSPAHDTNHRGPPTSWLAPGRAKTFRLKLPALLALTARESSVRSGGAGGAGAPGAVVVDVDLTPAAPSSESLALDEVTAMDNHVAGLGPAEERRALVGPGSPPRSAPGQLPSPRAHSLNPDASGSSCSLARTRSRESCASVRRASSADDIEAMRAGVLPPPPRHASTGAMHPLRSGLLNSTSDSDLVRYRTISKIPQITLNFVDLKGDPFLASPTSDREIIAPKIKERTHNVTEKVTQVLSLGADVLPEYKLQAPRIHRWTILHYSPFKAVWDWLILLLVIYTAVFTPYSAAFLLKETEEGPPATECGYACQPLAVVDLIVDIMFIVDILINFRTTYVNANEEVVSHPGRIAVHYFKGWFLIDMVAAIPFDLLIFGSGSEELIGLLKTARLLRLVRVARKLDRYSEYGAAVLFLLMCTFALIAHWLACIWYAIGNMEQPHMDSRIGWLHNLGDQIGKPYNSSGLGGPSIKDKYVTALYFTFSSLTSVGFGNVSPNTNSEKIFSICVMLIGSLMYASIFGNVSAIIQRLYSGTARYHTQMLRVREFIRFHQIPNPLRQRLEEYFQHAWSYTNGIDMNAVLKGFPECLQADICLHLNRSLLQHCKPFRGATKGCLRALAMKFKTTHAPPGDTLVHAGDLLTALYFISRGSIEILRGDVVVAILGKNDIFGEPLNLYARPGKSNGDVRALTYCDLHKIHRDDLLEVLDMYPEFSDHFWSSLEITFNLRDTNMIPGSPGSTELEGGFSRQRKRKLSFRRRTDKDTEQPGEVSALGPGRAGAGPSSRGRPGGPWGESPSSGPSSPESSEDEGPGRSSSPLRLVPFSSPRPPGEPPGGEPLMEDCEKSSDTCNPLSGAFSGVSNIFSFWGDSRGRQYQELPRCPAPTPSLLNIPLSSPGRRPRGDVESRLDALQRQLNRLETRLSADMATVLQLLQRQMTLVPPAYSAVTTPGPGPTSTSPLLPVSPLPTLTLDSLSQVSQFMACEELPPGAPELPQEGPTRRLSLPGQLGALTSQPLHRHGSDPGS

SMILES	hERG current change (%, negative = inhibition) at 1uM [%]
CCNc1nc(NCC)n2c(SCC(=O)Nc3cccc(Cl)c3)nnc2n1	0.554
CCc1ccc(/C=C2\Oc3ccc(C(=O)OC)cc3C2=O)cc1	9.41
CN1CCN(c2nc(NCc3ccco3)nc(N)c2[N+](=O)[O-])CC1	-6.7
Cn1c(=O)oc2cc(S(=O)(=O)NCCN3CCN(c4ccccc4F)CC3)ccc21	3.83
COc1cccc(NC(=O)c2ccccc2N2C(=O)C3C4C=CC(C4)C3C2=O)c1 (stereo not drawn)	1.33
O=C(Nc1cccc2cccnc12)c1ccc2c(c1)OCCO2	14.7
Cc1ccccc1Cn1ccc(NC(=O)CCSc2nc(-c3ccco3)cc(C(F)(F)F)n2)n1	9.37
COc1cc(OC)cc(C(=O)NNC(=O)CCc2ccccc2)c1	14.7
O=C(N/N=C/c1sc(=O)[nH]c1-[n+]1ccccc1)c1ccccc1[O-]	13.2
O=C(Oc1cccc(N2C(=O)CCC2=O)c1)C1CC(=O)N(c2ccc(F)cc2)C1 (stereo not drawn)	8.48
Clc1cccc(Oc2cnns2)c1Cl	4.25
O=S(=O)(c1ccccc1)N1N=C(c2cccs2)CC1c1cccc(O)c1 (stereo not drawn)	18
Nc1cc(N)nc(SCC(=O)N2CCc3ccccc32)n1	6.36
COc1cc(/C=N/NC(N)=S)ccc1OCC(=O)Nc1ccc(C)cc1	10.8
CCC(=O)NC(=S)Nc1ccccc1C(F)(F)F	7.06
O=C(NNc1ccccc1)C(=O)NNS(=O)(=O)c1ccc([N+](=O)[O-])cc1	10.9
CCN(c1ccccc1)S(=O)(=O)c1ccc(N2CCN(c3ccccc3O)CC2)nc1	6.62
COc1ccccc1N1CCN(c2cc(N3CCCC3)nc(C)n2)CC1	-26.7
Brc1ccc(C2=Nn3c(Cn4nnc5ccccc54)nnc3SC2)cc1	16.3
COc1ccc(C(=O)NC(=S)NC(C)(C)C)cc1Br	8.25
CCc1cccc(NC(=O)COC(=O)c2cc([N+](=O)[O-])ccc2N2CCOCC2)c1	2.57
Cc1ccc(S(=O)(=O)n2nc(C)cc2N)cc1	4.89

SMILES	hERG current change (%, negative = inhibition) at 1uM [%]
CCc1cccc2c(C(=O)CSc3nncn3-c3ccc(OC)cc3)c[nH]c12	16.2
CC(=O)Nc1ccccc1C(=O)N1CC(C)OC(C)C1 (stereo not drawn)	11.6
CN1C(=O)CC2(CC(=O)N(Cc3ccccc3)C2)C1=O (stereo not drawn)	12.3
COc1ccc(C(O)c2nc3ccccc3n2C(C)C)cc1 (stereo not drawn)	10
CC(NC(=O)Nc1ccc(Cl)cc1)c1ccccc1 (stereo not drawn)	18.3
Cc1cc(C)nc(SC2CCCCC2NS(=O)(=O)c2ccccc2)n1 (stereo not drawn)	4.72
CS(=O)(=O)N1CCCC(C(=O)Nc2ccccc2C(F)(F)F)C1 (stereo not drawn)	12.9
NS(=O)(=O)c1ccc(NC2=CC(=O)C(=O)c3ccccc32)cc1	14.2
COc1ccccc1NC(=O)NCCCCc1ccccc1	-0.0082
COC(=O)c1c(N)sc2c1CCN(c1ncc(C(F)(F)F)cc1Cl)C2	4.59
N#Cc1ccc(C(=O)N(Cc2ccco2)c2c(N)n(Cc3ccccc3)c(=O)[nH]c2=O)cc1	7.93
O=C(c1ccc(Cl)c(S(=O)(=O)N2CCOCC2)c1)N(c1ccccn1)C1CCCCC1	0.878
CCc1ccc(CN2CCC(n3nccc3NC(=O)c3ccccc3Cl)CC2)cc1	-92.3
O=C(Cn1cnc2c(oc3nc4c(cc32)CCCC4)c1=O)Nc1ccccc1	10.2
Oc1ccc(-c2nc(-c3ccc(O)c(O)c3)cs2)cc1	11.3
Cl.N/C(=N\N=C/c1ccc(F)cc1)N/N=C\c1ccc(F)cc1	7.32
CCOc1cc(/C=N\O)cc(Cl)c1OCC	7.97
CC1CCCCC1Nc1nc2ccc(Cl)cc2n2cnnc12 (stereo not drawn)	11.9
CC1CCCCN1C(=O)CSc1nnc(-c2ccco2)n1C (stereo not drawn)	6.97
CC1CCCN(S(=O)(=O)c2cccc(C(=O)NCc3ccco3)c2)C1 (stereo not drawn)	-3.21
CC1=C(C(=O)OCC2CCCO2)C(c2ccc(Cl)c(Cl)c2)NC(=O)N1 (stereo not drawn)	4.78
CN(C)c1ccc(NC(=O)c2ccc3nsnc3c2)cc1	-9.11

SMILES	hERG current change (%, negative = inhibition) at 1uM [%]
O=C(CCCCn1c(=O)[nH]c2ccsc2c1=O)NCc1cccnc1	-0.633
O=C(NCCN1CCOCC1)C(=O)NCC1OCCN1S(=O)(=O)c1ccccc1 (stereo not drawn)	11.8
O=c1cc2c(nn1Cc1c(Cl)cccc1Cl)-c1ccccc1CC2	10
Nc1ncc(-c2nnnn2-c2ccc(Cl)cc2)c(-c2ccc(Cl)cc2)n1	3.94
Cc1ccc(NC(=O)CN(C)C(=O)COC(=O)c2oc3ccccc3c2C)cc1	12.3
O=C(COC(=O)Cc1ccc(Br)cc1)NCc1ccc(F)cc1	6.09
O=C(CSc1ncnc2c1cnn2Cc1ccccc1)Nc1ccc2c(c1)OCCO2	8.89
Cc1ccc(CNCc2cc(Cl)ccc2O)cc1.Cl	4.69
O=[N+]([O-])c1cc(-c2nnc(Nc3ccccc3)c3ccccc23)ccc1N1CCOCC1	3.9
CCO[C@@H]1OC(C(=O)N2CCOCC2)=C[C@H](c2ccc(C(F)(F)F)cc2)[C@H]1CCCO	10.3
O=C(Nc1cc(C(F)(F)F)ccc1N1CCOCC1)c1cccnc1	-4.61
CCN(CC)S(=O)(=O)c1ccc(C(=O)OCC(=O)N2CCOCC2)cc1	25.9
CCOc1c(Br)cc(/C=C2\C(=O)N(CCC#N)N=C2C)cc1OC	12.8
COc1cc(/C=N/n2c(-c3ccccc3)n[nH]c2=S)cc(OC)c1O	24.4
CCn1c(SCC(=O)N(C)C)nc2cc(S(=O)(=O)N3CCCCC3)ccc21	8.72
Cc1ccc(/C(O)=C2/C(=O)C(=O)N(CC(=O)O)C2c2ccc([N+](=O)[O-])cc2)cc1 (stereo not drawn)	7.35
NNC(=O)CN1C(c2ccccc2)=Nc2ccc(Br)cc2C1c1ccccc1 (stereo not drawn)	0.332
Cc1ccc(CN(CC(=O)NC2CCCCC2)C(=O)c2csnn2)cc1	12.1
COc1ccc(C(C(=O)NC2CCCC2)N(C(=O)c2ccco2)c2ccc3c(c2)OCO3)cc1OC (stereo not drawn)	-9.48
CCCCCCC1/C(=N\NC(=O)c2ccccc2)CCC1C(=O)OC (stereo not drawn)	2.54
COc1cc(C(=O)Nc2ccc(S(=O)(=O)Nc3cnc4ccccc4n3)cc2)cc(OC)c1OC	16.1
Cc1cccc(N2CCN(C(=O)Cn3nc(Cc4ccncc4)c4ccccc4c3=O)CC2)c1C	3.71

SMILES	hERG current change (%, negative = inhibition) at 1uM [%]
O=C(COc1ccccc1Cl)N(Cc1ccco1)C1CCS(=O)(=O)C1 (stereo not drawn)	9.37
COCc1ccc(C(=O)N2CCCC(C(=O)c3ccc(SC)cc3)C2)s1 (stereo not drawn)	3.01
CCC(C)Sc1nnc(Cc2cc(=O)[nH]c(=O)[nH]2)n1-c1ccc(OC)cc1 (stereo not drawn)	14.6
c1cc(CNc2ccc(N3CCOCC3)cc2)ccn1	14.7
CCN(CC)CCN(Cc1cc2cc3c(cc2[nH]c1=O)OCO3)C(=S)NCc1ccco1	-10.4
CCC(=O)NCCCc1nc2ccccc2n1Cc1ccccc1F	-6.35
O=C(N/N=C/c1ccc2ncccc2c1)c1ccco1	3.7
Cc1ccn2cc(C(=O)N3CCN(c4cnn(-c5ccccc5)c(=O)c4Cl)CC3)nc2c1	-3.73
COc1cccc(SCC2CSc3nc4ccccc4c(=O)n32)c1 (stereo not drawn)	1.51
CC(C)(C)c1ccc(SCCc2ccccn2)cc1	11.7
O=C(Nc1ccc(F)cc1)c1cccc2ccccc12	17
O=C(NCC(=O)N(Cc1ccco1)C(C(=O)NC1CCCCC1)c1ccncc1)c1cccs1 (stereo not drawn)	5.06
CN1CCN(c2ccc(NC(=O)c3cccc(S(=O)(=O)N4CCCC4)c3)cc2)CC1	13.3
COC(=O)/C(=C/Nc1cccc2ccccc12)[N+](=O)[O-]	-3.86
Cl.O=C(O)CC1(CC(=O)N2CCN(CCO)CC2)CCCC1	-0.0866
CC(C)CC12CN3CCN(CC(C3)/C1=N/O)C2	1
Cc1ccc(N2/C(=N/c3nc(C)cc(C)n3)NC(=O)CC2C(=O)O)cc1 (stereo not drawn)	3.84
COc1cc(C(=O)Nc2ccc(S(=O)(=O)N3CCCCC3C)cc2)cc(OC)c1OC (stereo not drawn)	-10.7
COc1ccc(/C=C/C(=O)Oc2ccc(/C=N/NC(=O)COc3c(C)cccc3C)cc2)cc1	12.1
CN1CCN(C(=O)c2cc3c(=O)n4ccccc4nc3s2)CC1	3.82
O=C(CCCc1nc(-c2ccccc2)no1)N1CCOCC1	10.7
